Assay results as given in PubChem BioAssay AID624171 (National Center for Advancing Translational Sciences (NCATS), 2012).
Several values for one entry are separate records, joined by “and”; a condition that tells them apart may be missing. Identical values can stand only once. In all, about 410,000 compounds went through this assay and about 1,200 (0.29%) were called active. The inconclusive results got no clear call from the source; some entries with a clear call stand among them for comparison. Calls follow the shape of the dose curve; as a rule, active = well fitted activation curve with a large enough effect; inconclusive = small, poorly fitted or top-dose-only effect; inactive = flat fitted curve, though single readings scatter. Where the call is inconclusive, the potency comes from a doubtful curve fit.

Assay: qHTS of Nrf2 Activators; also: nearly all actives have a fitted effect of over 65% in size; as to activation: % of control where 0% means no effect
Conditions: AREc32 ARE-luciferase reporter (MCF7-derived line), luminescence, 24 h; activation: at 46.1 µM (top of the series)
In short: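 Steps: seed AREc32_Fluc cells (1000/well, 5% FBS OPTI-MEM); incubate overnight at 37 deg C; add 23 nL compound; incubate 24 hr; add Steady-Glo; hold 30 min RT; read luminescence.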
Potency is read from the fitted curve at half-maximal effect; tags tell the direction and shape of the fitted curve.

Potency, inconclusive:
O=C(CSc1c2c(nc3ccccc13)CCC2)Nc1ccc(F)cc1 20 µM [activator, single point], COc1ccc(C2CC(=O)N(C)c3ccccc3S2)cc1OC (stereo not drawn) 15.8 µM [activator, single point], CC(C)(C)n1nc2c(c1NC(=O)c1cc([N+](=O)[O-])ccc1Cl)CS(=O)(=O)C2 15.8 µM [activator, single point], COc1ccc(-c2cc(=O)n(CCC#N)[nH]2)cc1 22.4 µM [activator, single point], Clc1ccc2nc(-c3cccc(Br)c3)c(Cc3ccccc3)n2c1 12.6 µM [activator, partial curve], Cc1ccc(N2C(=O)CS/C2=C(\C(Cl)=C(Cl)Cl)[N+](=O)[O-])cc1 35.5 µM [activator, partial curve, poor fit], COc1ccc(-c2ccc(C3C(C#N)=C(N)Oc4n[nH]c(C)c43)o2)cc1 (stereo not drawn) 17.8 µM [activator, single point], CCCS(=O)(=O)c1nc(S(=O)(=O)c2ccc(C)cc2)c(N2CC(C)OC(C)C2)s1 (stereo not drawn) 10 µM [activator, partial curve, poor fit], NC(=O)c1nc(Nc2ccccc2)sc1NC(=O)c1c(F)cccc1F 2.24 µM [activator, full curve, poor fit], COc1cc(C2C(C(=O)/C=C/c3ccccc3)=C(O)C(=O)N2c2ccccn2)ccc1O (stereo not drawn) 20 µM [activator, single point], O=c1c2ccccc2nc(/C=C/c2cccc(Br)c2)n1CCCO 11.2 µM [activator, partial curve, poor fit], COc1cccc(-c2nc(-c3ccc(Br)o3)no2)c1 3.98 µM [activator, full curve] and 2.51 µM [activator, full curve, poor fit], COC(=O)c1ccc(NC(=O)CSC2=NCCN2)cc1 22.4 µM [activator, single point], O=C(/C=C/c1ccc([N+](=O)[O-])cc1)c1ccccc(=O)c1O 3.16 µM [activator, partial curve, poor fit]

Potency, active:
Clc1ccc2c(NCc3ccccn3)ncnc2c1 6.31 µM

activation, inactive:
CC1=C(O)C(=O)C(c2c(C)cc(C)c(Br)c2C)=C(O)C1=O 3.32%, CC(=O)N1CCc2cc([N+](=O)[O-])ccc21 -0.135%, c1csc(-c2cn3ccc4ccccc4c3n2)c1 17.4%
